No constants are given. Whether binding was seen depends on the method and setting. In cells and extracts the contact can be indirect. Some results given as binding are weak or reduced against the parent protein; the word gives no strength.

Protein sequences, listed by entry. Tags and fused reporters are not part of them. Lines headed by an entry give the natural chain unless they say otherwise; changes in a name come on top. Residues count along the entry.
UniProt Q9H7D7: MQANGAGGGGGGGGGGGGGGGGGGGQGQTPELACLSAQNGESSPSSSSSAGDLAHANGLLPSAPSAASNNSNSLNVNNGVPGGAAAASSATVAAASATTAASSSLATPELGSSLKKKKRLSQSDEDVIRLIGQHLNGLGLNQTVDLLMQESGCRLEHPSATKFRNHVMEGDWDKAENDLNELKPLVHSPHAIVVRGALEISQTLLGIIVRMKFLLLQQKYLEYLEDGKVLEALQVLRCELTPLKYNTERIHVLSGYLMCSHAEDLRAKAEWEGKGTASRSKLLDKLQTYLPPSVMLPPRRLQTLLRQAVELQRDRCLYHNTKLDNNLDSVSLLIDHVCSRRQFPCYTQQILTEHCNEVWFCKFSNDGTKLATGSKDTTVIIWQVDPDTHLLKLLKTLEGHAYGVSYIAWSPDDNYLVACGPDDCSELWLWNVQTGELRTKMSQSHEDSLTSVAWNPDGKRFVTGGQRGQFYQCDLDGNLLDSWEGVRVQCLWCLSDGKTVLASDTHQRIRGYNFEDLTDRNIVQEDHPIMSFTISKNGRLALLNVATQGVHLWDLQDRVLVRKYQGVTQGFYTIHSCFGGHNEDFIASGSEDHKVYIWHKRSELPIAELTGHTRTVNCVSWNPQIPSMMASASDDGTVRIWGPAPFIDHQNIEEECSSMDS
FLAG-WDR1-231 (in HEK293): residues 1-231 of Q9H7D7
FLAG-WDR1-122 (in HEK293): residues 1-122 of Q9H7D7
FLAG-WDR123-661 (in HEK293): residues 123-661 of Q9H7D7
FLAG-WDR232-661 (in HEK293): residues 232-661 of Q9H7D7
FLAG-WDR295-661 (in HEK293): residues 295-661 of Q9H7D7
UniProt P31751: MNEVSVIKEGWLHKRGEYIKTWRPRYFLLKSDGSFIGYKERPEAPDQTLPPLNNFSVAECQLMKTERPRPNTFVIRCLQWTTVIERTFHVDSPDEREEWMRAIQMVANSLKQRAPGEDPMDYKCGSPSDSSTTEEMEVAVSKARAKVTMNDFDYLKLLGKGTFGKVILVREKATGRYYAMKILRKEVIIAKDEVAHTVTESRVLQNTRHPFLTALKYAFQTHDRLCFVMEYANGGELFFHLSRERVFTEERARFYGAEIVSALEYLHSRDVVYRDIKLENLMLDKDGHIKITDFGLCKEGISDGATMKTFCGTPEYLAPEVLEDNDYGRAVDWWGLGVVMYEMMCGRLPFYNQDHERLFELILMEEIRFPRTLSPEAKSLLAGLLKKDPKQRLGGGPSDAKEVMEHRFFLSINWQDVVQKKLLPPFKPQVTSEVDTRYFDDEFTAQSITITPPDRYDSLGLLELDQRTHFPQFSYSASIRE
UniProt P31749: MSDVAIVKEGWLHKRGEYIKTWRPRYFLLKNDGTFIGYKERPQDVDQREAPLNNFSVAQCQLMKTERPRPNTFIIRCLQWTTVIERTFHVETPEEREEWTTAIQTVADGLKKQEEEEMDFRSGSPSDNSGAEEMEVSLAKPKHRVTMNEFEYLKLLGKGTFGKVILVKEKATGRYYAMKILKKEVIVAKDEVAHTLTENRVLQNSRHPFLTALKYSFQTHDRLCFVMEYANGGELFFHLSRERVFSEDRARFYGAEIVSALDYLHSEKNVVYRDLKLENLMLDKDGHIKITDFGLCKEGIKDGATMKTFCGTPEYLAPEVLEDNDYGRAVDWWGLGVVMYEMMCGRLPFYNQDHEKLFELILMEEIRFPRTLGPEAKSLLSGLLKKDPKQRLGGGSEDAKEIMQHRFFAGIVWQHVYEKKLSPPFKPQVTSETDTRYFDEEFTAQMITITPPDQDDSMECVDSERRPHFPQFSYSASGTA
UniProt P42338: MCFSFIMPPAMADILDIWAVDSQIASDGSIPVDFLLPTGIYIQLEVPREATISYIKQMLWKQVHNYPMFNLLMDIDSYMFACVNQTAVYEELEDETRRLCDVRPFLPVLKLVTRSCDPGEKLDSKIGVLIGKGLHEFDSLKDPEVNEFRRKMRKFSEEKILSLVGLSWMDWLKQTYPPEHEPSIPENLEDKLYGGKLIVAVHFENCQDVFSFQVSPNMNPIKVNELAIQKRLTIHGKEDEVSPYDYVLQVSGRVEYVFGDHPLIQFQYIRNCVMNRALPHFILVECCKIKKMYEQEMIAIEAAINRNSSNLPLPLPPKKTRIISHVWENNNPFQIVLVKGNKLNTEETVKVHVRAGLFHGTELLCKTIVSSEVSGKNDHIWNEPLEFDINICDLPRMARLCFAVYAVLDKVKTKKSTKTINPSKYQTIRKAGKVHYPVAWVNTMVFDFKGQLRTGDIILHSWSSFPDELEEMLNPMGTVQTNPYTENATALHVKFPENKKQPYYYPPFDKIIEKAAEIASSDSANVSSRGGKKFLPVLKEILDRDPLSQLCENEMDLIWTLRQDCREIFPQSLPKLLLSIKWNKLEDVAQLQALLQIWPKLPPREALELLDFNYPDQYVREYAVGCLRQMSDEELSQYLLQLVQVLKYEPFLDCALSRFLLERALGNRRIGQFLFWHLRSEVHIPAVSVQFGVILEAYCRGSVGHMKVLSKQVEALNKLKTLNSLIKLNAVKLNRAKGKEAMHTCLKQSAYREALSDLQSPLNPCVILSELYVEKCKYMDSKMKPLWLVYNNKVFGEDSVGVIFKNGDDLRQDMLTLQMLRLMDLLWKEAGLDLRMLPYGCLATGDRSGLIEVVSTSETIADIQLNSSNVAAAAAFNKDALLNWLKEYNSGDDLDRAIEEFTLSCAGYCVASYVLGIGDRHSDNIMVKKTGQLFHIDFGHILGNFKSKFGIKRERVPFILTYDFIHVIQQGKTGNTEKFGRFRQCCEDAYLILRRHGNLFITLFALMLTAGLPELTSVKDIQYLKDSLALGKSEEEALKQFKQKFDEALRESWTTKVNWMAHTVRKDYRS

Test [1] concerns the target FLAG-tagged WDR26 (human) (UniProt Q9H7D7). The test can be described thus: co-IP; MDA-MB231 cells transduced with adenovirus for FLAG-GFP or FLAG-WDR26, serum-starved overnight, unstimulated or stimulated with LPA (10 μM) for the indicated time; lysed in modified RIPA buffer (without SDS); immunoprecipitation with anti-FLAG, endogenous proteins detected by blot.
The target in test [2] is FLAG-WDR1-231 (in HEK293) (human) (UniProt Q9H7D7). As to the kind of experiment: co-IP; FLAG-GFP, FLAG-WDR26 or its deletion mutants transiently co-expressed with HA-AKT2 in HEK293 cells; immunoprecipitation with anti-FLAG.
Test [3] concerns the target FLAG-WDR232-661 (in HEK293) (human) (UniProt Q9H7D7). Described as above.
In test [4] the target is FLAG-WDR295-661 (in HEK293) (human) (UniProt Q9H7D7). The description is as above.
Test [5] concerns the target FLAG-WDR1-122 (in HEK293) (human) (UniProt Q9H7D7). The description is as above.
Test [6] addresses FLAG-WDR123-661 (in HEK293) (human) (UniProt Q9H7D7). Described as above.
The target in a further test is HA-AKT2 (UniProt P31751). As to the kind of experiment: co-IP; HEK293 cells transiently transfected with HA-AKT2 and FLAG-Gβ1γ2 or Myc-WDR26, or both; lysates immunoprecipitated with anti-HA.

As for “AKT1 (endogenous) (from UniProt P31749 1-480) (enzyme)”, the binding result in test [1] was “no binding”.

On to “AKT2 (endogenous) (from UniProt P31751 1-481) (enzyme)”, for which the binding result in test [1] is “binds”.

On to “HA-AKT2 (from UniProt P31751 1-481) (enzyme)”, for which the binding entry is on record as “binds” in test [2]; “binds” in test [3]; “binds” in test [4]; “no binding” in test [5]; “binds” in test [6].

As to “Myc-WDR26 (in HEK293) (from UniProt Q9H7D7 1-661)”, the binding entry with HA-AKT2 is “binds”.

Consider “PI3K subunit p110β (endogenous) (from UniProt P42338 1-1070) (enzyme)”, for which the binding result in test [1] is “binds”.

B1: p110δ (endogenous) (enzyme, UniProt O00329 1-1044)
chain: MPPGVDCPMEFWTKEENQSVVVDFLLPTGVYLNFPVSRNANLSTIKQLLWHRAQYEPLFHMLSGPEAYVFTCINQTAEQQELEDEQRRLCDVQPFLPVLRLVAREGDRVKKLINSQISLLIGKGLHEFDSLCDPEVNDFRAKMCQFCEEAAARRQQLGWEAWLQYSFPLQLEPSAQTWGPGTLRLPNRALLVNVKFEGSEESFTFQVSTKDVPLALMACALRKKATVFRQPLVEQPEDYTLQVNGRHEYLYGSYPLCQFQYICSCLHSGLTPHLTMVHSSSILAMRDEQSNPAPQVQKPRAKPPPIPAKKPSSVSLWSLEQPFRIELIQGSKVNADERMKLVVQAGLFHGNEMLCKTVSSSEVSVCSEPVWKQRLEFDINICDLPRMARLCFALYAVIEKAKKARSTKKKSKKADCPIAWANLMLFDYKDQLKTGERCLYMWPSVPDEKGELLNPTGTVRSNPNTDSAAALLICLPEVAPHPVYYPALEKILELGRHSECVHVTEEEQLQLREILERRGSGELYEHEKDLVWKLRHEVQEHFPEALARLLLVTKWNKHEDVAQMLYLLCSWPELPVLSALELLDFSFPDCHVGSFAIKSLRKLTDDELFQYLLQLVQVLKYESYLDCELTKFLLDRALANRKIGHFLFWHLRSEMHVPSVALRFGLILEAYCRGSTHHMKVLMKQGEALSKLKALNDFVKLSSQKTPKPQTKELMHLCMRQEAYLEALSHLQSPLDPSTLLAEVCVEQCTFMDSKMKPLWIMYSNEEAGSGGSVGIIFKNGDDLRQDMLTLQMIQLMDVLWKQEGLDLRMTPYGCLPTGDRTGLIEVVLRSDTIANIQLNKSNMAATAAFNKDALLNWLKSKNPGEALDRAIEEFTLSCAGYCVATYVLGIGDRHSDNIMIRESGQLFHIDFGHFLGNFKTKFGINRERVPFILTYDFVHVIQQGKTNNSEKFERFRGYCERAYTILRRHGLLFLHLFALMRAAGLPELSCSKDIQYLKDSLALGKTEEEALKHFRVKFNEALRESWKTKVNWLAHNVSKDNRQ
Take B1: in test [1], the binding result was “no binding”.

Values taken from PMC4951255.
